The campaign covered roughly 310,000 compounds. About 2,200 (0.71%) showed an effect of 50% or more. Effects have a minus sign here. The list shows a part of the results.
These compounds were tested against human ether-à-go-go-related gene (hERG) potassium channel (human, UniProt Q12809) (assay: primary screen, population patch clamp on CHO cells stably expressing hERG).
Chain of human ether-à-go-go-related gene (hERG) potassium channel (Q12809 whole entry, looked up): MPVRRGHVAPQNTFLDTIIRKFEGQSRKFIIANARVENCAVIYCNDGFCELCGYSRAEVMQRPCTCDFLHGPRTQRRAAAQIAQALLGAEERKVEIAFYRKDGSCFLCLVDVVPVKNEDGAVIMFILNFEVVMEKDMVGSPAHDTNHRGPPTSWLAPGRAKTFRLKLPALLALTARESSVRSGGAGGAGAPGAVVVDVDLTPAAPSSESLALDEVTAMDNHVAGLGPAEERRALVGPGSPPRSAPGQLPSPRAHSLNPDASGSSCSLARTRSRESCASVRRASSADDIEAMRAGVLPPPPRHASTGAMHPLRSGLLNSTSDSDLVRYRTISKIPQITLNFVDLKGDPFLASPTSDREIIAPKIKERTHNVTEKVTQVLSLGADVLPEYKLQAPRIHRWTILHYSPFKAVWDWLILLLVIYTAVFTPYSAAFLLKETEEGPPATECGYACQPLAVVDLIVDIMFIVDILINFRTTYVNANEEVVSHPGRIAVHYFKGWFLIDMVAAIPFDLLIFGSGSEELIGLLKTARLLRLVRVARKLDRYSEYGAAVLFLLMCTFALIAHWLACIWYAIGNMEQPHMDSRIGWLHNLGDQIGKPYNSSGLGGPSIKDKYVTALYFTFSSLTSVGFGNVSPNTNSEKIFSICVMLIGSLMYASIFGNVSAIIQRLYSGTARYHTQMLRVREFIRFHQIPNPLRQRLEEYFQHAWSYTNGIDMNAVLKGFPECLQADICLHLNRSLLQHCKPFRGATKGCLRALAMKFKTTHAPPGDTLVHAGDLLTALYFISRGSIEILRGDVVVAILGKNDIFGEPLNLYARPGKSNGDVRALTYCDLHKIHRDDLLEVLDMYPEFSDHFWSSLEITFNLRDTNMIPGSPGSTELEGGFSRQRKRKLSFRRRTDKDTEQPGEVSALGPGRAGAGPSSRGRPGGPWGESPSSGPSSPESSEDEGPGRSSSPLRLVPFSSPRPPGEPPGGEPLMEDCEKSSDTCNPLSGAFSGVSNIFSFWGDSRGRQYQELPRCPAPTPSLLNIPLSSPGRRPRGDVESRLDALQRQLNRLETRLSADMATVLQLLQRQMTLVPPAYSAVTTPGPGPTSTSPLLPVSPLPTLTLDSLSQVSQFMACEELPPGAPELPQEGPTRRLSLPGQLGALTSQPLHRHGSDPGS

| Compound | hERG current change (%, negative = inhibition) at 1uM [%] |
| --- | --- |
| CC(C)CCNC(=O)CCn1nc(-c2ccc(Cl)cc2)ccc1=O | -5.4 |
| CCOC(=O)C(C)(C)Sc1ncnc2nc[nH]c12 | 0.15 |
| O=C(N/N=C/c1ccc(OC(=O)c2ccccc2)cc1)c1cccc(O)c1 | 10.4 |
| CCc1cc(C(=O)OC)c(NC(=O)CCCC(=O)O)s1 | 13.7 |
| Cc1ccn(CCC(=O)N2CCCC(CCC(=O)NCc3ccc(F)c(F)c3)C2)n1 (centres unmarked) | 17 |
| COc1ccc(CC(=O)Nc2oc(-c3ccccc3)c(-c3ccccc3)c2C#N)cc1OC | 11.9 |
| COc1cc(Br)cc2cc(C(=O)OC3CCN(C)CC3)c(=O)oc12 | 2.25 |
| CCOc1ccc(CNC(=O)NS(=O)(=O)c2ccc(OC)cc2)cc1 | 16.5 |
| CCOC(=O)C(O)(c1ccc(NC(=O)c2ccc(Cl)c(Cl)c2)cc1)C(F)(F)F (centres unmarked) | 14.5 |
| NC(=O)c1cc2c3ccccc3ccn2c1-c1ccccc1 | 6.93 |
| O=C(Nc1cccc(-c2cn3c(n2)SCC3)c1)c1ccc2ccccc2n1 | 16.8 |
| COc1ccccc1-c1c(C)nn2c(N3CCC4(CC3)OCCO4)cc(C)nc12 | 11.4 |
| CC(C)Sc1nc(N2CCOCC2)c2c(c1C#N)CC(C)(C)N(C)C2 | -5.18 |
| O=C(CCc1ccccc1)Nc1cccc([N+](=O)[O-])c1 | 9.9 |
| N#Cc1ccc(OCC(=O)n2cc(C(=O)c3cc(Cl)cc(Cl)c3O)cn2)cc1 | 8.88 |
| CN(/N=C/c1ccc(N(C)C)cc1)C1=NS(=O)(=O)c2ccccc21 | 15 |
| COc1ccc(C(=O)NCCC2=CCCCC2)cc1OC1CCN(C(C)C)CC1 | -7.41 |
| COc1ccc(NC(=O)Cn2nc(C)c3ccccc3c2=O)cc1 | 10.5 |
| Cc1cccc(OCCCC(=O)Nc2nc3ccccc3[nH]2)c1 | 6.69 |
| CC1CCCCN1C(=O)/C(=C\c1ccccc1)c1ccccc1 (centres unmarked) | 12 |

| Compound | hERG current change (%, negative = inhibition) at 1uM [%] |
| --- | --- |
| O=S(=O)(NC(=S)NC1CCCCC1)c1ccccc1 | 7.53 |
| CC(=O)Nc1ccc(NC(=O)CSc2nnc(-c3ccc(NS(C)(=O)=O)cc3)n2C)cc1C | 2.17 |
| COCCn1c(-c2ccc(SC)cc2)nc2c1c(=O)[nH]c(=O)n2CC(C)C | -3.11 |
| O=C(c1ccc(Br)cc1)c1coc2ccc(O)cc12 | -0.508 |
| COc1ccccc1OCC(=O)N1CCN(C(=O)c2ccco2)CC1 | 3.35 |
| CN(C)c1cccc(C(=O)Nc2nc3ccccc3[nH]2)c1 | 14.7 |
| N#C/C=C1\Sc2ccccc2C(=O)N1CC(=O)N1CCN(S(=O)(=O)c2ccccc2)CC1 | 0.0242 |
| CCOC(=O)CCNC(=O)CCNC(=O)C(c1ccccc1)c1ccccc1 | 5.38 |
| COC(=O)c1ccc(Cl)c(NC(C)=O)c1 | 9.23 |
| CCNC(=O)NCCc1c[nH]c2ccc(Cl)cc12 | -5.81 |
| Cc1ccc(C(=O)Oc2cccnc2)cc1[N+](=O)[O-] | 11 |
| COc1ccc(N2CCN(CC(O)COCCOc3ccc(Br)cc3)CC2)cc1.Cl (centres unmarked) | -34.6 |
| CC(=O)N/C(=C\c1cccc([N+](=O)[O-])c1)C(=O)NC(C)C | 4.59 |
| O=C(Nc1ccccc1)/C(=C\c1ccccc1)NC(=O)c1ccco1 | 12.1 |
| CCCCc1nc2cc(C(=O)N3CCCCC3CCO)ccc2o1 (centres unmarked) | 14.5 |
| CSc1ccccc1NC(=O)c1ccc(C)o1 | -6.12 |
| CC(C)C(=O)N1CCN(c2ccc(NC(=O)c3cccs3)cc2Cl)CC1 | 11.2 |
| COC(=O)c1sccc1NC(=S)Nc1ccccc1 | -2.05 |
| CCOc1cc(C2c3c(oc4ccccc4c3=O)C(=O)N2c2nccs2)ccc1O (centres unmarked) | 11.3 |
| Cc1cc(C(=O)OCC(=O)c2ccc(Br)s2)no1 | 1.95 |

| Compound | hERG current change (%, negative = inhibition) at 1uM [%] |
| --- | --- |
| Cc1ccc(S(=O)(=O)N2CCC(c3nnc(SCCN4CCCC4)n3C)CC2)cc1 | 18.1 |
| Cc1ccc(-c2csc3ncn(CC(=O)O)c(=O)c23)cc1C | 22.2 |
| COc1ccc(NC(=O)C2CCN(c3nc(C)nc4c3CCC4)CC2)cc1 | -9.37 |
| Cc1ccc(C)c2c1[nH]c1ccccc12 | 16.6 |
| Cc1ccc(C)c(S(=O)(=O)N2CCN(Cc3cc4c(cc3O)OCO4)CC2)c1 | 8.05 |
| Cc1ccc(NC(=O)CSc2nnc(N)s2)c([N+](=O)[O-])c1 | 4.78 |
| FCCCOc1ccc(/C=N/OCc2ccc(Cl)cc2)cc1 | 0.266 |
| O=C1CCN(Cc2ccc(O)cc2)CCN1[C@H](CO)Cc1ccccc1 | -2 |
| Cc1cc(N2CCN(c3ccc(F)cc3)CC2)n2ncnc2n1 | -14.8 |
| COc1cc(OC)c(OC)cc1/C=C1\CCC(C2CCCC2)C1=O (centres unmarked) | -0.948 |
| COc1ccccc1CN(Cc1cccnc1)S(=O)(=O)c1ccc(-n2cnnn2)c(OC)c1 | -8.7 |
| O=Cc1c(N2CCC3(CC2)OCCO3)nc2ccccn2c1=O | 6.93 |
| CSc1ccccc1NC(=O)CSCc1nc2sc(C)c(C)c2c(=O)[nH]1 | 7.38 |
| COC(=O)c1ccc(C#Cc2ccccc2)o1 | 18.3 |
| CCCOc1ccc(Cc2nc(N)nc(N)n2)cc1 | 15.6 |
| CN(CC(=O)Nc1ccccc1C(F)(F)F)C(=O)CC1OC(=O)c2ccccc21 (centres unmarked) | 9.22 |
| NCC12CC3CC(C1)CC(CN)(C3)C2 | 4.9 |
| COc1ccccc1CN(C)C(C)C(=O)Nc1cccc(C(C)=O)c1 (centres unmarked) | 0.307 |
| CC(C)(C)NC(=O)Cn1c(SCC(=O)NC2CC2)nc2ccccc21 | 5.13 |
